Assay results: the BET-seq Pho4 binding data (Le et al. 2018)
The other results are listed elsewhere or left out. These are noisy estimates, calculated here from bound and input reads.

These sequences were tested against T1, Pho4 (S. cerevisiae) (UniProt P07270) (assay: relative binding free energy (BET-seq); higher = weaker binding). Details: reference: library average.
T1 sequence: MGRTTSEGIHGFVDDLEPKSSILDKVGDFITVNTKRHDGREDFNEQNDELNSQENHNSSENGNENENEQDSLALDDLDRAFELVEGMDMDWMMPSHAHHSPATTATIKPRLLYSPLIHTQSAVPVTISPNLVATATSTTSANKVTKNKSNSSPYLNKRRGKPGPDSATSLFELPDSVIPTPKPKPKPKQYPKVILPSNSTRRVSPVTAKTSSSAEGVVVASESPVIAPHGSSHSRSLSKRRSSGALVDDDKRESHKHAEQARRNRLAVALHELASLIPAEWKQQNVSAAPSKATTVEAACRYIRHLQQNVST

Sequence | relative binding free energy [kcal/mol]
TTGAACACGTGTAGGG | 0.1
GGTTACACGTGGGGCC | 0.06
TTTATCACGTGTGAGT | 0.32
TTTAGCACGTGCGGTT | 0.01
TTGAGCACGTGTACAT | -0.01
GGATTCACGTGTGTGG | 0.27
CGTTTCACGTGTATAG | 0.25
ATGATCACGTGGGGTA | 0.05
TTAGGCACGTGAAGAG | 0
ATATTCACGTGTTTCG | 0.19
TGGGGCACGTGGCTCA | -0.21
TGAAACACGTGGGTAT | -0.2
AATCACACGTGGTTTT | 0.17
TGTAACACGTGAGAAG | 0.14
TATCGCACGTGTGCGG | -0.12
GCATTCACGTGGGGTT | 0.16
GTCGACACGTGATGGT | 0.35
AGTATCACGTGTGTGT | 0.23
GGATGCACGTGTCATG | 0.12
CTGGGCACGTGGACGT | -0.07
TTATCCACGTGGTATG | -0.06
TTATGCACGTGTTATA | -0.19
AAGCGCACGTGGGCGG | -0.33
TGTTCCACGTGGTATA | -0.03
ATTTTCACGTGTTTTC | 0.31

Sequence | relative binding free energy [kcal/mol]
GGAAGCACGTGAAGTG | 0.14
GTAGTCACGTGGGTCC | -0.02
TCAGCCACGTGGGTGG | -0.23
GGTATCACGTGCGATT | 0.23
TGCCTCACGTGATGGG | 0.25
GCTGTCACGTGCGGTG | 0.06
TGTATCACGTGCTGCG | 0.12
ATGTACACGTGCAGGG | 0
GGTCCCACGTGTTTGT | 0.02
TTGCTCACGTGGATAT | 0.1
GTATTCACGTGTGTAT | 0.34
GGGTGCACGTGAAGTC | 0.4
GGGCGCACGTGTTATT | -0.05
ATAAGCACGTGGGGAG | -0.19
GATATCACGTGTGGCG | 0.17
TAATTCACGTGAGTGT | 0.43
AGGCGCACGTGTTGAA | 0.02
CGGTTCACGTGAGGCG | 0.44
GAGAACACGTGGTATG | 0.16
TGGGCCACGTGGTGGT | -0.11
GGAGACACGTGGGTCT | -0.01
AATAGCACGTGTAGGA | 0.03
CTATGCACGTGCGGTG | -0.17
ATGGTCACGTGATAAT | 0.28
AGTCTCACGTGTGTAG | 0.28

Sequence | relative binding free energy [kcal/mol]
TGGATCACGTGGCGGC | 0.01
AGCGGCACGTGGTGAT | -0.18
ATCTTCACGTGGGCTG | 0.07
GCGTCCACGTGGTGGG | -0.08
TGGGGCACGTGGCCTA | -0.31
GGAAACACGTGGTTGG | -0.06
TTTTACACGTGCTTAG | -0.02
CCTGGCACGTGTTTGT | -0.24
CGGGGCACGTGTATTT | -0.03
GGCGGCACGTGTCGTT | 0.01
GTGGCCACGTGTTTAG | 0.07
TTGCACACGTGGGGCG | -0.02
GTCTCCACGTGTGTGT | 0.04
GATATCACGTGGCGTA | 0.13
GAGGTCACGTGGTATG | 0.07
TCTGGCACGTGAGTAA | 0.09
GGCGTCACGTGGTAGA | 0.17
TTGCTCACGTGATGCT | 0.41
TTGGTCACGTGTTATG | 0.16
TATGTCACGTGCGCGG | -0.11
AAATTCACGTGCTGTT | 0.26
GTATTCACGTGTTCGA | 0.28
CGGGTCACGTGAGCGG | 0.28
